# Test results as given in PubChem BioAssay AID651820 (National Center for Advancing Translational Sciences (NCATS), 2012).
# Hit rate of the full screen: of about 340,000 compounds, about 12,000 (3.5%) were called active. Inconclusive means that the source gave no clear call. Such entries were picked first, then a sample of the others. Calls follow the shape of the dose curve; as a rule, active = well fitted inhibition curve with a large enough effect; inconclusive = small, poorly fitted or top-dose-only effect, or another doubt; inactive = no such curve, though single readings can be large or run the other way. Potencies of inconclusive entries are left out as doubtful fits.
# Experiment: qHTS Assay for Inhibitors of Hepatitis C Virus (HCV)
# Details: Huh7.5.1 HCVcc-Cre (HCVcc is cell-culture hepatitis C virus) infection, luciferase reporter, 44 h; activity change, negative = inhibition: at 41.8 µM (top of the series) unless noted
# How it was run: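 Infectious HCV cell culture screen: compound-treated cells (1,000/well, pre-plated 4 h) are infected with HCVcc-Cre at roughly 0.5 moi and grown 44 h. Infection is quantified by luciferase signal after 15 min substrate incubation at room temperature.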
# % is scaled to controls: 0 for no effect and ±100 for the full control effect; potency is read from the fitted curve at half-maximal effect; tags tell the direction and shape of the fitted curve.
SMILES,Potency,"activity change, negative = inhibition"
C/C(=N\NC(=O)c1ccc(NS(=O)(=O)c2cccs2)cc1)c1ccccn1,"inconclusive [inhibitor, single point]",–
Cc1nnc(NC(=O)Nc2cccc(Cl)c2)s1,"inconclusive [inhibitor, partial curve]",–
CC/C(=N\NC(=S)Nc1cc(C)ccc1C)c1ccc(OC(F)F)cc1,active: 12.6 µM,–
COC(=O)c1ccc(NC(=O)CCCCCn2nnc3ccccc3c2=O)cc1,–,inactive: -17.4%
COc1cc2c(cc1OC)CN(c1nc(CN3CCOCC3)nc3sc4c(c13)CCCC4)CC2,"inconclusive [inhibitor, partial curve, poor fit]",–
CC(C)C(=O)Nc1ccc(Sc2ccc(F)cc2)cc1,"inconclusive [inhibitor, single point]",–
OCCN1CCN(c2nc(-c3ccccc3)c3cc(Br)ccc3n2)CC1,–,inactive: -13.4%
Cc1cc(NC(=O)CCC(=O)N(Cc2ccco2)C2(C(=O)NC3CCCCC3)CCCC(C)C2)no1 (centres undefined),–,inactive: -19.7%
Cc1cc(C)nc(/N=c2/ssnc2Cl)c1,–,inactive: -7.76%
CCSc1nnc(NC(=O)C2Cc3ccccc3CN2S(=O)(=O)CC)s1 (centres undefined),–,inactive: -6.89%
Cc1ccc2nc(-c3ccc(NC(=O)CCS(=O)(=O)c4ccccc4)cc3)sc2c1,"inconclusive [inhibitor, partial curve]",–
CCn1c(Sc2ccc(N)cc2Cl)nc2ccccc21,"inconclusive [inhibitor, partial curve]",–
O=[N+]([O-])c1ccc(O)c(/C=N/NC2=NS(=O)(=O)c3ccccc32)c1,–,inactive: -13%
CCOC(=O)c1c(N)sc(C(=O)OCCOC)c1C,"inconclusive [inhibitor, partial curve]",–
CCCn1c(NC(=O)CN2C(=O)NC3(CCCCC3)C2=O)nc2ccccc21,"inconclusive [inhibitor, full curve, poor fit]",–
CCN(C(=O)COC(=O)c1ccccc1Nc1ccccc1)c1c(N)n(Cc2ccccc2)c(=O)[nH]c1=O,"inconclusive [inhibitor, partial curve]",–
C/C(=N\Nc1cccc2ccccc12)c1c(O)n(Cc2ccccc2)c(=O)[nH]c1=O,–,inactive: -6.19%
COc1ccc(-c2cn3cccc(C)c3n2)cc1Br,–,inactive: -27.5%
O=C(CSC1=NS(=O)(=O)c2ccccc2N1)NCc1ccc(F)cc1,–,inactive: 6.85%
COc1cc(OC)c2c(-c3ccccc3)cc(=O)oc2c1C(CC(=O)N1CCCC1)c1ccc2c(c1)OCO2 (centres undefined),"inconclusive [inhibitor, single point]",–
C=C(C)CSc1nnc2n(Cc3ccccc3)c(=O)c3c4c(sc3n12)CCC4,"inconclusive [inhibitor, partial curve, poor fit]",–
CCOc1ccc2oc(C(=O)OCC(=O)N3C(C)CCCC3C)c(C)c2c1 (centres undefined),active: 12.6 µM,–
Cn1c(CNc2nc3ccccc3n2CCN2CCCCC2)nc2ccccc21,"inconclusive [inhibitor, single point]",–

SMILES,Potency,"activity change, negative = inhibition"
COc1ccccc1-c1c(C(F)(F)F)oc2cc(OS(C)(=O)=O)ccc2c1=O,"inconclusive [inhibitor, single point]",–
CCN1CCN(c2ccc(S(=O)(=O)N3CCCCC3)cc2NC(=O)/C=C/c2ccc(OC(F)F)cc2)CC1,"inconclusive [inhibitor, single point]",–
O=[N+]([O-])c1c(NCCCO)cc(N2CCN(Cc3ccc4c(c3)OCO4)CC2)c2nonc12,"inconclusive [inhibitor, single point]",–
CCCn1c(NC(=S)Nc2ccccc2)nc2ccccc21,–,inactive: 3.41%
Cc1ccc(CNC(=O)C2CCN(C(=O)Nc3ccc(C)cc3)CC2)cc1,"inconclusive [inhibitor, single point]",–
CCCn1c2c(c(O)c(C(=O)Nc3ncccc3C)c1=O)CCCC2,active: 11.2 µM,–
CCOC(=O)[C@@H](C)N(Cc1ccc(OC)cc1)S(=O)(=O)N(Cc1ccccc1)[C@H](C(=O)OC)C(C)C,"inconclusive [inhibitor, single point]",–
COc1cccc(C(=O)NC2CC3CCCC(C2)N3CC(=O)Nc2ccc(N(C)C)cc2)c1 (centres undefined),"inconclusive [inhibitor, partial curve]",–
COc1cccc2sc(Nc3nc4ccc(NC(C)=O)cc4s3)nc12,active: 4.47 µM,–
CCOc1ccccc1N1CCN(C(=O)CCNS(=O)(=O)c2ccccc2F)CC1,"inconclusive [inhibitor, partial curve]",–
COc1cc2cc(CN(Cc3cccnc3)C(=O)Nc3ccccc3F)c(=O)[nH]c2cc1OC,–,inactive: -9.42%
C[C@H](NC(=O)OC(C)(C)C)c1nnc(SCC(=O)c2ccc(Cl)cc2)o1,"inconclusive [inhibitor, single point]",–
Cc1ccc(C(=O)NCc2ccccc2)cc1Br,"inconclusive [inhibitor, single point]",–
CCCc1ccc(OCc2ccc(C(=O)N3CCCC3)o2)cc1,"inconclusive [inhibitor, single point]",–
O=C1NC(=O)C(CCc2ccccc2)(c2ccccc2)N1 (centres undefined),–,inactive: -0.263%
Cc1ccc(S(=O)(=O)N(C(=O)c2ccco2)c2cc3sc(=O)oc3c3ccccc23)cc1,–,inactive: -2.34%
CCCN(Cc1ccc(C)cc1)C(=O)c1ccc(CNS(=O)(=O)c2ccc(C(C)=O)cc2)cc1,"inconclusive [inhibitor, partial curve]",–
CCOc1ccc(N(CC(=O)Nc2ccc(Br)cc2)S(C)(=O)=O)cc1,"inconclusive [inhibitor, partial curve]",–
CCN(CC)S(=O)(=O)c1ccc2oc(Nc3ccccc3)nc2c1,"inconclusive [inhibitor, single point]",–
CC(Nc1nc(N2CCCCC2)nc2ccccc12)c1ccccc1 (centres undefined),"inconclusive [inhibitor, single point]",–
COc1cc(NS(=O)(=O)c2ccc(NC(=S)NC(=O)c3cccs3)cc2)nc(OC)n1,–,inactive: 13.4%
Cc1ccc2nc(C)c3c(c2c1)OC(C(C)(Cl)Br)C3 (centres undefined),active: 7.08 µM,–
S=C(NCCCN1CCN(CCCNC(=S)NC2CCCCC2)CC1)NC1CCCCC1,"inconclusive [inhibitor, partial curve]",–

SMILES,Potency,"activity change, negative = inhibition"
O=C(COC(=O)c1ccc(O)cc1)Nc1ccccc1-c1ccccc1,"inconclusive [inhibitor, single point]",–
COc1ccc(-c2ccc3oc(-c4ccc(OC)cc4)c(C#CCO)c3c2)cc1,"inconclusive [inhibitor, full curve, poor fit]",–
CCCCn1cnc2c([nH]c3cc(OC)ccc32)c1=O,"inconclusive [inhibitor, single point]",–
Oc1ccc(C[C@H]2CNCCN2CCc2cc(C(F)(F)F)cc(C(F)(F)F)c2)cc1,"inconclusive [inhibitor, single point]",–
CCOc1cc(/C=N/NC(=O)c2nnn(-c3nonc3N)c2C)ccc1OCc1ccc(F)cc1,"inconclusive [inhibitor, full curve, poor fit]",–
Cn1c2c(c(=O)n(C)c1=O)C(C(F)(F)F)(C(F)(F)F)N=C(CCC1CCCCC1)N2,"inconclusive [inhibitor, single point]",–
COCCC(=O)N1CCC(Oc2ccc(C(=O)NCCC3=CCCCC3)cc2)CC1,–,inactive: -17.7%
CCc1cc2cc(OC)ccc2nc1SCC(=O)NNC(=O)c1ccco1,"inconclusive [inhibitor, single point]",–
COc1ccccc1C(=O)NCC(=O)N/N=C/c1cc(Br)ccc1OCc1ccccc1,active: 10 µM,–
O=C(N/N=C/c1ccc(Cl)cc1Cl)c1ccncc1,–,inactive: -6.21%
COc1ccccc1C(=O)CN1C(=O)NC2(CCCc3ccccc32)C1=O (centres undefined),–,inconclusive: -34.7% [inhibitor]
O=C(N/N=C/c1cn(-c2ccccc2)nc1-c1cccs1)c1ccccc1F,"inconclusive [inhibitor, partial curve]",–
CC(=O)Nc1ccc(C(=O)Nc2cccc(S(=O)(=O)NC3=NCCC3)c2)cc1,"inconclusive [inhibitor, single point]",–
COc1cc(NC(=O)CN2C(=O)NC(c3ccccc3)(c3ccccc3)C2=O)cc(OC)c1,–,inactive: -16.3%
COC(=O)c1cc(NC(=O)Cc2ccccc2[N+](=O)[O-])cc(C(=O)OC)c1,"inconclusive [inhibitor, partial curve]",–
O=[N+]([O-])c1ccc(C2Oc3ccccc3C3CC(c4ccccc4)=NN32)s1 (centres undefined),"inconclusive [inhibitor, single point]",–
Cc1ccc(NC(=O)Cc2c(O)c3ccccc3[nH]c2=O)c(C)c1,–,inactive: 5.33%
COc1ccc(S(=O)(=O)N=Nc2c(O)[nH]c3ccccc23)cc1,–,inactive: 5.28%
COc1ccc(-c2c(C)oc3c(CN4CCCCC4C)c(O)ccc3c2=O)cc1OC (centres undefined),–,inactive: -16%
O=C1Nc2ccccc2OCc2c1cccc2[N+](=O)[O-],–,inactive: 7.04%
COc1ccc(NC(=O)c2cc(=O)[nH]c(=O)[nH]2)cc1S(=O)(=O)Nc1ccccc1Cl,–,inactive: 20.5%
C#CCOCCOCCOCCNc1nc(N2CCN(C(=O)[C@H](C)n3cc(CCC(=O)O)nn3)CC2)nc(N2CCN(C(=O)[C@H](C)n3cc(CCC(=O)O)nn3)CC2)n1,–,inactive: -1.51% [at 8.37 µM]
CN(C(=O)c1ccc(NC(=O)Cc2cccc(NC(=O)C3CCN(C(=O)C4CCC4)CC3)c2)cc1)C1CCCC1,–,inactive: 17.9%
